The values below come from publication PMC4336329 (PLoS ONE, 2015).

The whole screen tested about 310,000 compounds, of which about 14,000 (4.5%) showed an effect of 50% or more. Effects have a minus sign here. The list shows a part of the results.
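Further: peak tail current of the secondary pulse compared with the same well before compound.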

human ether-à-go-go-related gene (hERG) potassium channel, sequence (Q12809 whole entry, looked up): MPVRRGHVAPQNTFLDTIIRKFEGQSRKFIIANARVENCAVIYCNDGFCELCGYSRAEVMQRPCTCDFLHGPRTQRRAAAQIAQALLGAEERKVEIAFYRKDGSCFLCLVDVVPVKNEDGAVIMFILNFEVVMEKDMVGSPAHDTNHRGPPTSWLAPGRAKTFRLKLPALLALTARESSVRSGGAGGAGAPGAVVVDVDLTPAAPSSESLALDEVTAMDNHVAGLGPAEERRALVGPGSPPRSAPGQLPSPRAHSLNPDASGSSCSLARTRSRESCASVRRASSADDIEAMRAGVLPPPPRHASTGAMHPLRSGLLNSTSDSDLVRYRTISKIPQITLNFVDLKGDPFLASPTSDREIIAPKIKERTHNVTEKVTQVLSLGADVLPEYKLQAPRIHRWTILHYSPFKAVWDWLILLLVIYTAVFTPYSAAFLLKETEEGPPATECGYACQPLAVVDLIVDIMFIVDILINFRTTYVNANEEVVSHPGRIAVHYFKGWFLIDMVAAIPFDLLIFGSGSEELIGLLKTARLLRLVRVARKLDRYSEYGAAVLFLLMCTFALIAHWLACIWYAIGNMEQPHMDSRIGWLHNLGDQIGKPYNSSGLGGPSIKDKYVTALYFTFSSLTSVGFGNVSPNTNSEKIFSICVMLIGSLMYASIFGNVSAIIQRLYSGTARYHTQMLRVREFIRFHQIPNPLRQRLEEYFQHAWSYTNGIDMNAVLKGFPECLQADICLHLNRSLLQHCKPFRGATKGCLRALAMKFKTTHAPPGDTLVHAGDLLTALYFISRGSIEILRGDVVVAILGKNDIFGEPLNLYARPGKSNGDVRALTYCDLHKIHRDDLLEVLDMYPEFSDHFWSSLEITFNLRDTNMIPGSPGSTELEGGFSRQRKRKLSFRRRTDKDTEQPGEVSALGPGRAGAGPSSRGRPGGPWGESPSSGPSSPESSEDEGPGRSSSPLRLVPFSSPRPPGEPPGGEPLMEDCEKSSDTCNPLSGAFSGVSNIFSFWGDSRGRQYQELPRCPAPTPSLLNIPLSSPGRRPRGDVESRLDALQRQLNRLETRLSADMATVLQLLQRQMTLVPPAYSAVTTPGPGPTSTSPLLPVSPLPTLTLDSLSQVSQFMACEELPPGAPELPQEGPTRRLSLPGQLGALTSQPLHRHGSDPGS

The assay concerns the target human ether-à-go-go-related gene (hERG) potassium channel (human, UniProt Q12809). In words: primary screen, population patch clamp on CHO cells stably expressing hERG.
With `O=S1(=O)CCC(N=Nc2c(O)n(Cc3ccccc3)c3ccccc23)C1` (centres unmarked), the “hERG current change (%, negative = inhibition) at 10uM” value is -25.1%. For the compound `COc1ccccc1C(=O)N/C(=C\c1ccccc1)C(=O)NC(Cc1ccccc1)C(=O)O` (centres unmarked), the “hERG current change (%, negative = inhibition) at 10uM” value is recorded as 13%. On to `O=C(COC(=O)c1ccc(Cl)cc1O)NC(=O)C1CCCCC1`, for which the “hERG current change (%, negative = inhibition) at 10uM” value was 13.1%. Then `COc1ccc(C(=O)CSc2nc(C)cc(=O)[nH]2)cc1C`, with 2.62%; and `N#CCC(=O)Nc1ccc(C(=O)OCC(=O)NC2CCCCCC2)cc1`, with 14.9%. Then `CN1CCN(S(=O)(=O)c2cc([N+](=O)[O-])ccc2N2CCCCCC2)CC1`, with -16.9%. Then `COc1cc(/C=N/O)ccc1OCc1ccc([N+](=O)[O-])cc1`, with -23.5%; and `CC(=O)c1cccc(NC(=O)c2cc(S(=O)(=O)N3CCOCC3)cs2)c1`, with -9.79%. For `CCC(CC)NC(=O)c1cc2c(C)nn(Cc3ccccc3Cl)c2s1`, the “hERG current change (%, negative = inhibition) at 10uM” value is 10.9%. Then `NNc1nc(-c2ccccc2)cc(-c2ccccc2)n1`, with 16.2%; and `CNS(=O)(=O)c1cccc(C(=O)OCC(=O)N(Cc2ccccc2)C(C)(C)C)c1`, with -4.86%; and `Cc1nc(NCCc2ccccc2)c(C#N)c(C)c1[N+](=O)[O-]`, with 6.5%. With `O=C1N(Cc2cccnc2)C[C@@H]2C[C@@H](c3ccc4nsnc4c3)N3CCC[C@@]123`, the “hERG current change (%, negative = inhibition) at 10uM” value is recorded as -11.3%.

For the compound `N#Cc1c(/N=C/c2ccco2)sc2c1CCCCC2`, the “hERG current change (%, negative = inhibition) at 10uM” value is on record as 1.96%. Then `Br.CCCCC1(C(=O)OCC)CC(CSC(=N)N)OC1=O` (centres unmarked), with -0.297%; and `CCc1cc(C(=O)OC)c(NC(=O)CCC(=O)O)s1`, with 5.39%; and `COc1ccc(Cc2noc(CN3CCN(c4ccc(Cl)cn4)CC3)n2)cc1OC`, with -33.6%. In the case of `Cc1n[nH]c(C)c1Sc1ccccc1N=Cc1cc(Cl)cc([N+](=O)[O-])c1O`, the “hERG current change (%, negative = inhibition) at 10uM” value was -10.9%.

Take `CCN1CCN(C(=O)CN(c2ccccc2C)S(C)(=O)=O)CC1`: the “hERG current change (%, negative = inhibition) at 10uM” value came to 6.9%. For `FC(F)(F)c1ccc(CN2CCCCCC2)cc1`, the “hERG current change (%, negative = inhibition) at 10uM” value is on record as -24.4%. Then `O=C(CCCC1=NS(=O)(=O)c2ccccc2N1)OCc1ccc(Cl)cc1`, with -10%; and `COc1ccccc1S(=O)(=O)Cc1ccc(C(=O)NCc2ccc3c(c2)OCO3)o1`, with -1.87%.

`N=c1c(C(=O)NCc2ccc(F)cc2)cc2c(=O)n3ccccc3nc2n1CC1CCCO1` (centres unmarked): the “hERG current change (%, negative = inhibition) at 10uM” value is reported as -77.4%.

For the compound `COC(=O)c1c(NC(=O)c2ccccc2F)sc2c1C(C(=O)OC)CC2` (centres unmarked), the “hERG current change (%, negative = inhibition) at 10uM” value amounted to 9.38%. Then `O=C(NCC(c1cccs1)N1CCOCC1)c1cc(S(=O)(=O)N2CCOCC2)c(Cl)cc1Cl` (centres unmarked), with -9.54%; and `CCC(C)NC(=O)c1cc(-c2ccccc2O)on1` (centres unmarked), with 7.77%; and `COc1cc(/C=C(/C#N)C(=O)NCCCc2ccccc2)ccc1OCC(=O)O`, with 10.8%. For `CC(C(=O)c1ccc(-c2ccccc2)cc1)[n+]1cccc(NC(=O)c2ccccc2)c1.[Br-]` (centres unmarked), the “hERG current change (%, negative = inhibition) at 10uM” value is reported as -48.9%.

With `C=CC(=O)N=c1sc2ccccc2n1-c1ccccc1`, the “hERG current change (%, negative = inhibition) at 10uM” value is given as -6.08%. Turning to `Cc1nc2[nH]onc2c2nccc(=O)c12`, the “hERG current change (%, negative = inhibition) at 10uM” value was found to be 16.1%. For the compound `O=C(NO)c1ccc(C(=O)N(C2CCCCC2)C2CCCCC2)cc1`, the “hERG current change (%, negative = inhibition) at 10uM” value is on record as -8.38%. Regarding `Cc1cc(N2C(=O)c3ccccc3C2=O)n(C)n1`, the “hERG current change (%, negative = inhibition) at 10uM” value was found to be 9.7%.

With `CCCSc1nc2c(c(=O)n(C)c(=O)n2C)n1Cc1ccc(C)cc1`, the “hERG current change (%, negative = inhibition) at 10uM” value is -3.8%. Then `CC(C)Oc1cccc(C(=O)NC(=S)Nc2cccnc2)c1`, with -31.2%. Then `COc1ccc(Cc2nnc(SCC(=O)Nc3nc(C)cs3)o2)cc1`, with 7.7%; and `Cc1cc(C)n(-c2ccc(NC(=O)C3CCCCN3C(=O)c3sccc3C)cc2)n1` (centres unmarked), with 14.5%; and `O=C(Nc1ccccc1)Nc1ccccc1C(=O)NCC1CC1`, with 9.84%. Take `COc1ccc(CC(=O)OCC(=O)c2ccc(OC)cc2)cc1`: the “hERG current change (%, negative = inhibition) at 10uM” value stood at 2.43%. Then `CNc1snc(C)c1C(=O)OCC(=O)c1ccc(Cl)cc1`, with 7.08%; and `Cc1ccccc1NC(=S)N1CCCCCC1`, with 11.7%.

Take `Cc1cc2ccccc2n1CCNC(=O)C1CC1`: the “hERG current change (%, negative = inhibition) at 10uM” value was -14.7%. Then `COCCN(C(=O)COC(=O)c1ccc(Cl)nc1)c1c(N)n(Cc2ccccc2)c(=O)[nH]c1=O`, with 18%; and `Cl.N=c1n(CCO)c2ccccc2n1Cc1ccccc1Cl`, with -20%. For the compound `Cc1ccc(S(=O)(=O)CCC(=O)NCc2ccccc2)cc1`, the “hERG current change (%, negative = inhibition) at 10uM” value is listed as 3.61%.

As for `c1ccc(CCc2nc3ccccc3[nH]2)cc1`, the “hERG current change (%, negative = inhibition) at 10uM” value is on record as 4.83%.

Consider `Cc1sc2ncnc(Sc3ccccc3C(=O)Nc3ccccc3Cl)c2c1C`, for which the “hERG current change (%, negative = inhibition) at 10uM” value turned out to be 11.5%.

Regarding `CCCn1c2ccccc2c2cnn(CC(=O)NCCN(C)C)c(=O)c21`, the “hERG current change (%, negative = inhibition) at 10uM” value is reported as -60.1%. Then `CCOC(=O)CN(C(=O)COC(=O)C1(c2ccccc2)CC1)c1ccc(F)cc1`, with -0.464%; and `CC1(C)Cc2c(sc3nc(SCC(=O)O)[nH]c(=O)c23)CO1`, with 6.51%. Then `O=C(NC(Cc1ccccc1)C(=O)O)/C(=C/c1ccc(Cl)cc1)NC(=O)c1ccco1` (centres unmarked), with 18.3%; and `CCn1c(=O)c(C(=O)NCc2ccccn2)c(O)c2ccccc21`, with 6.29%; and `COc1ccccc1-c1ccc(SCc2ccc(F)cc2)nn1`, with -5.58%. Take `CCn1nc(-c2ccccc2)nc2c(=O)n(C)c(=O)nc1-2`: the “hERG current change (%, negative = inhibition) at 10uM” value is listed as -27.6%.

`CCOC(=O)c1cc2c(=O)n3ccccc3nc2n(CC2CCCO2)c1=NC(C)=O` (centres unmarked): the “hERG current change (%, negative = inhibition) at 10uM” value is -1.13%. Then `COc1cc2nc(N3CCN(C(=O)c4ccco4)CC3)nc(N)c2cc1OC.Cl`, with -35.9%; and `CCOC(=O)CC(=O)CSc1nnc(Cn2c(=O)sc3ccccc32)n1C`, with -4.61%; and `O=C(CCS(=O)(=O)c1ccc(Cl)cc1)Nc1nnc(-c2ccco2)o1`, with 6.36%. Then `Cc1nc(SCC(=O)N2CCC(Cc3ccccc3)CC2)[nH]c(=O)c1C`, with -25.4%. `COc1ccc(C(=O)N2CCN(C(=O)Cc3ccccc3)CC2)cc1.O=C(O)C(=O)O`: the “hERG current change (%, negative = inhibition) at 10uM” value came out at 0.269%. Then `COc1ccc(CCN(C)C2CCCN(S(=O)(=O)c3ccccc3)C2)cc1OC` (centres unmarked), with -77.2%; and `Oc1ccccc1N1CCN(c2ncccn2)CC1`, with 10.4%; and `Cn1c(SCCC#N)nnc1-c1ccc(F)cc1`, with 10.1%. Consider `O=C(Cn1ccnc1[N+](=O)[O-])NCc1ccccc1`, for which the “hERG current change (%, negative = inhibition) at 10uM” value was 0.861%. Regarding `O=C(C1CC1)N1CCc2cc(S(=O)(=O)NCC3COc4ccccc4O3)ccc21` (centres unmarked), the “hERG current change (%, negative = inhibition) at 10uM” value was determined as 6.27%. Then `CC(C)c1cccc(C(C)C)c1OC(=O)[C@H]1OC(C(C)(C)C)=C[C@@H]1c1ccccc1`, with -6.97%; and `O=C(COc1ccc(Cl)cc1Cl)NC(=S)Nc1ccc(CN2CCOCC2)cc1`, with -30.9%; and `COc1ccc(CN(CCC#N)CCC2(c3ccccc3)CC(C)N(C)CC2C)cc1OC.Cl` (centres unmarked), with -8.36%. Then `Cc1ccc(NC(=O)COC(=O)CCc2nc3ccccc3c(=O)[nH]2)cc1Cl`, with 28.9%; and `Oc1ccc(-c2cn3c(n2)SCC3)cc1O`, with -6.17%; and `O=S(=O)(c1ccc(F)cc1)N1CCN(CCc2ccccc2)CC1`, with -8.48%.

As to `CC(C)=CCN1CCN(CCCn2cccn2)CC1CCO` (centres unmarked), the “hERG current change (%, negative = inhibition) at 10uM” value is given as -11.8%. Then `COc1ccc(/C=N/N2CCN(Cc3ccc(C)cc3)CC2)cc1Br`, with 15.5%; and `O=C(N/N=C\c1ccc(-c2ccc([N+](=O)[O-])cc2)o1)C1COc2ccccc2O1` (centres unmarked), with -7.36%. Then `O=C(NC1CCN(C(=O)Nc2cccc(Cl)c2)CC1)c1ccco1`, with -20.5%; and `Cc1cccc(CCNC(=O)C2CCCN(c3ncnc4c3nc3n4CCCCC3)C2)c1` (centres unmarked), with -59.8%. As for `Nc1c(Cl)cc(Cl)cc1C(=O)OCC(=O)N1CCCC1=O`, the “hERG current change (%, negative = inhibition) at 10uM” value was 3.97%. Then `COc1ccc(C(=O)OCC(=O)Nc2sccc2C(N)=O)cc1OC`, with -0.284%; and `CCOc1ccc(NC(=O)CSc2nc(-c3cccs3)cc(C(F)(F)F)n2)c([N+](=O)[O-])c1`, with -2.63%.

On to `CCNC(=S)N1CCN(CC(=O)Nc2ccc(Br)cc2)CC1`, for which the “hERG current change (%, negative = inhibition) at 10uM” value is recorded as -61.4%. Then `CC1CN(S(=O)(=O)Cc2ccccc2)CC(C)O1` (centres unmarked), with -10.4%. `COc1cccc(C2c3[nH]c4ccccc4c3CCN2C(=O)c2ccccc2F)c1OC` (centres unmarked): the “hERG current change (%, negative = inhibition) at 10uM” value was found to be 25.5%. On to `COC(=O)c1c(Oc2nc(OC)cc(OC)n2)cccc1Oc1nc(OC)cc(OC)n1`, for which the “hERG current change (%, negative = inhibition) at 10uM” value is given as -8.4%. Then `COc1ccccc1NC(=S)NCCC(c1ccccc1)c1ccccc1`, with 6.56%; and `Cc1ccc(NC(=O)CSc2nc3sc(C)cc3c(=O)n2C)cc1`, with -5.79%.

In the case of `CCN1C(=O)C(O)(CC(=O)c2c(C)coc2C)c2ccccc21` (centres unmarked), the “hERG current change (%, negative = inhibition) at 10uM” value was found to be 23.4%.

For the compound `COc1ccc(NC(=O)Nc2nnc(-c3ccccc3SCc3ccccc3)s2)cc1`, the “hERG current change (%, negative = inhibition) at 10uM” value was found to be 13.6%. Then `CC(C)C(=O)N1CCN(c2ccccc2NC(=O)c2cccc3ccccc23)CC1`, with -32.9%; and `CCc1cccc(C)c1NC(=O)C1=C(C(=O)O)CCCC1`, with 2.25%. Consider `O=C1N[C@@H](Cc2cnc[nH]2)C(=O)N2CCC[C@@H]12`, for which the “hERG current change (%, negative = inhibition) at 10uM” value turned out to be 25.3%.
